The shares of active, inactive and inconclusive entries below differ from those in the screen. Potencies of inconclusive entries are left out as doubtful fits. Activity calls are given as the source filed them. The call rests on the fitted dose curve; in most records, active means well fitted activation curve with a large enough effect; inconclusive means small, poorly fitted or top-dose-only effect; inactive means no such curve, though single readings can be large or run the other way.
experiment: qHTS Assay for Agonists of the Relaxin Receptor RXFP1: V1B Hit Validation; settings: HEK293 V1B cells, cAMP TR-FRET, 30 min; series mostly up to 115 µM; activation: at the top concentration;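 further: counter-screen in HEK293 cells expressing V1B rather than RXFP1 for selectivity; nearly all actives have a fitted effect of over 65% in size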;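 on activation: cAMP accumulation with PDE4 inhibitor Ro 20-1724 present during compound exposure; 0% = buffer alone basal and 100% = 29 nM porcine relaxin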
Summary of the method: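 TR-FRET cAMP readout (ex 320, em 615/665 nm) after 30 min RT lysis with d2-cAMP/cryptate antibody. Before that: HEK293 cells, compounds 30 min 37C, Ro 20174 present. Hill-fit EC50s.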
Potency means the concentration at half of the fitted maximal effect; tags describe the fitted curve by direction and shape.

SMILES	activation	Potency
CN(Cc1ccccc1)C(=O)c1ccccc1NC(=O)c1ccco1	inactive: 2.47% [at 127 µM]	
CC[n+]1ccc(/C=C/c2ccc(N(C)C)cc2)c2ccccc21	inactive: -21.1%	
COc1ccc(CCn2c(=N)c(C(=O)NCC3CCCO3)cc3c(=O)n4cccc(C)c4nc32)cc1 (stereo not drawn)		inconclusive [activator, partial curve, poor fit]
NC(=S)c1cc2ccc(O)cc2oc1=O		active: 4.35 µM
Cc1ccc(CNC(=O)CCc2nnc3ccc(NCCCN4CCCC4=O)nn23)cc1		inconclusive [activator, partial curve, poor fit]
CC(C)(C)C(=O)Nc1ccccc1C(=O)NCc1ccco1	inactive: 1.03% [at 127 µM]	
O=C(Nc1cccc(C(F)(F)F)c1)c1ccccc1NC(=O)C1CCCCC1		inactive
O=[N+]([O-])c1cccc(CSc2nnc3ccccn23)c1		inconclusive [activator, partial curve]
CCOC(=O)C1CCN(C(=O)Cn2nc(C)n3cccc3c2=O)CC1		inconclusive [activator, partial curve]
CCC(Sc1ccc2nnc(-c3cccnc3)n2n1)C(=O)OC (stereo not drawn)		active: 19.4 µM
Nc1c(Cl)cc(-c2[nH]c3cc(C(=O)NCCO)ccc3c(=O)c2O)cc1Cl		active: 34.6 µM
Nc1ncnc2c1ncn2[C@@H]1O[C@H](COS(=O)(=O)O)[C@@H](O)[C@H]1O		active: 6.9 µM
O=C(CSc1ccc2nnc(-c3cccnc3)n2n1)Nc1ccccc1		inconclusive [activator, partial curve]
C/C(=N\NC(=O)c1c(C)nc2ccccn12)c1ccc(N2CCOCC2)cc1		inconclusive [activator, partial curve]
O=C(NCc1nnc2c(C(F)(F)F)cc(Cl)cn12)c1cccnc1		inconclusive [activator, partial curve]
NN1C(=O)/C(=C2/Sc3ccccc3N2CCCS(=O)(=O)O)SC1=S		inconclusive [activator, full curve]
COc1cccc(/C=N/NC(=O)Cn2cnc3c2c(=O)n(C)c(=O)n3C)c1		inconclusive [activator, partial curve]
CCN(CC)S(=O)(=O)c1ccc(Cl)c(NC(=O)CSc2cccc[n+]2[O-])c1		inconclusive [activator, partial curve]
CCN(CC)S(=O)(=O)c1ccc(N2CCOCC2)c(NC(=O)c2cc([N+](=O)[O-])ccc2Cl)c1	inactive: 9.17%	

SMILES	activation	Potency
COc1ccc(NC(=O)CSc2ccc3nnc(-c4cccnc4)n3n2)c(OC)c1		inconclusive [activator, partial curve]
COc1ccccc1CNC(=O)CCCc1nnc2n(C)c(=O)c3sccc3n12		inconclusive [activator, partial curve]
Cc1ccc(CNC(=O)CCCn2nc(C)n3ccnc3c2=O)cc1		inconclusive [activator, partial curve]
CC(=O)C(Sc1ccc2nnc(-c3cccnc3)n2n1)C(C)=O		inconclusive [activator, partial curve]
C=CCOc1c(Cl)cc(CNc2ccc(N(C)C)cc2)cc1OC	inactive: -0.719%	
CCOC(=O)CC(NC(=O)CCc1c(C)nc2nc(C)nn2c1C)c1ccc(OC(C)C)cc1 (stereo not drawn)		inconclusive [activator, partial curve]
CC(C)n1c(CN2CCN(C(=O)c3ccco3)CC2)nc2c1c(=O)n(C)c(=O)n2C		inconclusive [activator, partial curve]
Cc1noc(NS(=O)(=O)c2ccc(N3Cc4ccccc4C3=O)cc2)c1C		active: 11.9 µM
CC(C)C(=O)Nc1ccc(Nc2ccccc2)cc1	inactive: -2.7%	
Cc1ccc(C(=O)Nc2ccccc2C(=O)NCc2ccco2)cc1		inconclusive [activator, single point]
COc1ccc(S(=O)(=O)N2CCOCC2)cc1NC(=O)CSc1cccc[n+]1[O-]		inconclusive [activator, partial curve]
O=[N+]([O-])c1cccc(COc2ncnc3cc([N+](=O)[O-])ccc23)c1		inconclusive [activator, partial curve]
O=C(CCCN1C(=O)c2cccnc2C1=O)Nc1ccccc1F		inconclusive [activator, partial curve]
O=c1nc2ccccn2c2ccc(S(=O)(=O)N3CCCCC3)cc12		inconclusive [activator, partial curve]
Cn1c2c(c(=O)n3ncnc13)CCCC2		inconclusive [activator, partial curve]
CCN(CC)C(=O)c1cc(Cl)ccc1NC(=O)c1ccco1	inactive: 2.42% [at 127 µM]	
O=C(Nc1ccccc1)c1ccccc1NC(=O)C1CCCCC1	inactive: -0.678% [at 127 µM]	
COC(=O)c1sc(N2C(=O)C(O)=C(C(=O)c3ccc(C)o3)C2c2cccs2)nc1C (stereo not drawn)		inconclusive [activator, full curve]
Cc1cc2nc3ccc(=[N+](C)C)cc-3sc2cc1N	inactive: -4.25%	
